T1: IL-6R (Homo sapiens, UniProt P08887)
T1 sequence (P08887 20-357 limits assumed): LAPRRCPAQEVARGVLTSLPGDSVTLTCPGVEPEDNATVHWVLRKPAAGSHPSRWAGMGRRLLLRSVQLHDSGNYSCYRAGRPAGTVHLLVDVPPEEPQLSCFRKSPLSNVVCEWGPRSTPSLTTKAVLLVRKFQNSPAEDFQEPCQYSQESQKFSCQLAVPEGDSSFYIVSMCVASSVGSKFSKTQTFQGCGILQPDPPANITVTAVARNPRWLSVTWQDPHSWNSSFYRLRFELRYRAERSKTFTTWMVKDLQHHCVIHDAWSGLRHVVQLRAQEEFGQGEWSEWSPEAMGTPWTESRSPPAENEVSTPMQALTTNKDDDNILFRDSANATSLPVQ


Target: T1, IL-6R
Test: Biacore T200, binding of ATP/adenosine-dependent antibodies to IL-6R with ATP, ADP, AMP, cAMP or adenosine
Conditions: 1 mM ATP; IL-6R immobilized on sensor chip CM5, antibody as analyte; 25° C., pH 7.4; from plot of equilibrium value against antibody concentration; read-out: Dissociation constant KD
Procedure: Biacore T200 (GE Healthcare) was used to evaluate the effect of various small molecules on the antigen-antibody reaction of IL-6R with 9 ATP/adenosine-dependent antibodies (6RAD2C1-4_001, 6RAD2C1-4_005, 6RAD2C1-4_011, 6RAD2C1-4_026, 6RAD2C1-4_030, 6RAD2C1-4_042, 6RAD2C1-4_076, 6RDL3C1-4_085, and 6RDL3C5-4_011) obtained from the library. The running buffer was used: 20 mmol/1 ACES, 150 mmol/l NaCl, 0.05% (w/v) Tween20, pH 7.4. Assay was carried out at 25° C. IL-6R was immobilized onto sensor chip CM5 by amine coupling; and the antibodies were allowed to interact as analyte for 120 seconds, and changes in the amount of binding were observed. For dilution of the antibodies, the running buffer or the running buffer containing any one of ATP, ADP, AMP, cAMP, and adenosine (ADO) were used. The final concentration of each small molecule and the final concentration of each antibody were adjusted to 1 mM and 1 μM, respectively. Meanwhile, under the 1 mM ATP condition, assay was carried out with a series of stepwise antibody concentrations. The dissociation constant KD (mol/L) of each clone for IL-6R was calculated from a plot of equilibrium value against antibody concentration. The parameters were calculated using the Biacore T200 Evaluation Software (GE Healthcare).

| Molecule | Kd |
| --- | --- |
| 6RAD2C1-4_42 (antibody) heavy: EVQLVESGGDLVKPGGGLRLSCAASGFTFSSYTMNWVRQAPGKGLEWVSSISSRSSYASYADSVKGRFTISRDNAKNSLYLQMNSLRAEDTAVYYCARYGRLNSHNWVFDYWGQGTLVTVSS[human IgG1 constant region not written out] light: QSALTQPPSASGSPGQTVTISCTGTSTDVGFYNYVSWYQQHPGKAPKLMIYQGSKKPSGVPDRFSGSKSGNTASLTVSGLQAEDEADYFCSTRATTKGVLFGGGTKLTVLRTVAAPSVFIFPPSDEQLKSGTASVVCLLNNFYPREAKVQWKVDNALQSGNSQESVTEQDSKDSTYSLSSTLTLSKADYEKHKVYACEVTHQGLSSPVTKSFNRGEC | 250 nM |
| 6RDL3C5-4_11 (antibody) heavy: EVQLVESGGDLVKPGGGLRLSCAASGFTFSSHTMNWVRQAPGKGLEWVSSISSRSGYIFYADSVKGRFTISRDNAKNSLYLQMNSLRAEDTAVYYCARFGKLNHMNWVFDYWGQGTLVTVSS[human IgG1 constant region not written out] light: QSALTQPPSASGSPGQTVTISCTGTSTDVGTYNYVSWYQQHPGKAPKLMIYQVSKRPSGVPDRFSGSKSGNTASLTVSGLQAEDEADYFCSTRAITRGVAFGGGTKLTVLRTVAAPSVFIFPPSDEQLKSGTASVVCLLNNFYPREAKVQWKVDNALQSGNSQESVTEQDSKDSTYSLSSTLTLSKADYEKHKVYACEVTHQGLSSPVTKSFNRGEC | 130 nM |
